The results in this text go back to patent publication US20250304717A1, “CAMPTOTHECIN DERIVATIVE AND LIGAND-DRUG CONJUGATE” (HAINAN SIMCERE ZAIMING PHARMACEUTICAL CO., LTD., priority 2022, published 2025).

What all share (assay type): cell-based, human
Assay [1] has as its system CDH6 negative cells SKOV3. Nature of the assay: Bystander effect test of anti-CDH6-ADC. Particulars: for Maximum inhibition rate (%): supernatant from OVCAR3, SKOV3 negative cell; for IC50: supernatant from OVCAR3 incubated with ADC 5 days, then 7 days on SKOV3, read-out: IC50 (negative cell). Here is the method: Cell culture: OVCAR3 cells were cultured with a 1640 medium containing 20% fetal bovine serum +2 μg/mL bovine insulin+1% penicillin-streptomycin, and SKOV3 cells were cultured with a McCoy's 5a medium containing 10% fetal bovine serum+1% penicillin-streptomycin. The two cell strains were both cultured at 37° C. with 5% CO2. Cells at logarithmic growth phase were available for the experiment.
Bystander effect detection: The supernatant after incubation of the ADC with CDH6 positive cells OVCAR3 was transferred to CDH6 negative cells SKOV3 for further incubation, and the Cell-Titer Glo reagent was used for detecting the influence of the supernatant on the cell proliferation activity of SKOV3, so that the bystander effect of the ADC was reflected. OVCAR3 cells were digested and pipetted in cell culture flasks, and resuspended using the corresponding fresh medium. The cell density was adjusted. The cells were seeded on a 96-well plate at 20000 cells/180 μL/well and incubated at 37° C. with 5% CO2 overnight. The ADC concentration was diluted to 4500 nM with a complete medium and subjected to 3-fold gradient dilution to give a total of 8 concentration gradients, and then 20 μL of an ADC diluted solution was transferred to the 96-well plate, i.e., the initial concentration of the ADC was 450 nM. The 96-well plate was incubated at 37° C. with 5% CO2 for 5 days. 150 μL of the supernatant in the OVCAR3 cell culture plate was pipetted and transferred to the SKOV3 cell plate (700 cells/50 μL/well) seeded one day in advance, and incubated at 37° C. with 5% CO2 for 7 days. The Cell-Titer Glo reagent was added and the cell activity was measured.
(§1) A negative control group and a positive control group were respectively used as Bottom and Top. The negative control group was not added with cells, only added with the culture medium in the same volume, and other operations were consistent with those of the experimental group. The positive control group was not added with the test drug, and other operations were consistent with those of the experimental group.
% Inhibition was calculated and fitted to give compound IC50.
(§2) Signal referred to the signal value of the experimental group, Bottom referred to the average signal value of the negative control group, and Top referred to the average signal value of the positive control group.

For another assay, the system named is OVCAR3 cells. Nature of the assay: Anti-tumor cell proliferation activity of anti-CDH6-ADC, OVCAR3. Particulars: 5 days.
Text: (§3) Cell and material: The human ovarian cancer cell line OVCAR3 (CDH6 high-expression cell strain) was purchased from ATCC, the human ovarian teratoma cell line PA-1 was purchased from ATCC, bovine serum, 1640 medium (Gibco #A10491-01), MEM medium (Gibco #11095-080), MEM NEAA (Gibco #11140-050), sodium pyruvate (Gibco #11360-070), penicillin-streptomycin, and 0.25% Trypsin-EDTA (Gibco #25200-056) were purchased from Gibco, bovine insulin was purchased from Solarbio, 96 well plates were purchased from Corning (U.S.), and Cell-Titer Glo reagent was purchased from Promega (U.S.).
(§4) Cell culture: OVCAR3 cells were cultured with a 1640 medium containing 20% fetal bovine serum +2 μg/mL bovine insulin+1% penicillin-streptomycin at 37° C. with 5% CO2, and PA-1 cells were cultured with an MEM medium containing 10% fetal bovine serum+1% MEM NEAA+1% sodium pyruvate+1% penicillin-streptomycin at 37° C. with 5% CO2. Cells at logarithmic growth phase were available for the experiment.
(§5) Cell proliferation activity test: The Cell-Titer Glo reagent was used to test ADC for inhibitory activity on proliferation of both OVCAR3 and PA-1 cell strains. OVCAR3 and PA-1 cells were digested and pipetted in cell culture flasks, and resuspended using the corresponding fresh medium. The cell density was adjusted. OVCAR3 cells (5000 per well) and PA-1 (800 per well) were seeded on 96-well plates and incubated at 37° C. with 5% CO2 for 24 h. After the ADC solution to be detected was added (the ADC was diluted with the medium for the corresponding cells described above, the ADC concentration was adjusted to 100 nM, then the medium was continuously and serially diluted 3-fold to give a total of 8 concentrations, and 10 μL of the prepared ADC solution was transferred to the 96-well plate so that the final concentration was 0-10 nM), the mixture was incubated at 37° C. with 5% CO2. OVCAR3 cells and PA-1 cells were cultured for 5 days. The Cell-Titer Glo reagent was added and the cell activity was measured.
as §1
(§6) Data analysis: % Inhibition was calculated, and compound IC50 was fitted.
as §2

The next assay relates to PA-1 cells. The assay can be described thus: Anti-tumor cell proliferation activity of anti-CDH6-ADC, PA-1. Particulars: 5 days.
Text: as §3, §4, §5, §1, §6, §2

B1: ADC-L1-19-P1-6 (conjugate)
heavy: EVQLVQSGAEVKKPGASVKVSCKASGYTFTDYYMAWVRQAPGQGLEWMGYIFPNSGGTDYSQKFKGRVTLTVDKSTSTVYMELSSLRSEDTAVYYCARELGADYGDYYAMDHWGQGTTVTVSS[human IgG1 constant region omitted]
light: DIQMTQSPSSLSASVGDRVTITCRASENIDSYLAWYQQKPGKSPKLLVYSATLLADGVPSRFSGSGSGTDYTLTISSLQPEDFATYYCQHYYRTPPTFGQGTKLEIKRTVAAPSVFIFPPSDEQLKSGTASVVCLLNNFYPREAKVQWKVDNALQSGNSQESVTEQDSKDSTYSLSSTLTLSKADYEKHKVYACEVTHQGLSSPVTKSFNRGEC
As to B1, in assay [1], the “Maximum inhibition rate (%)” value was determined as 104.9%. For the same molecule, the IC50 (as a rule, the concentration that gives 50% inhibition) was found to be 1.8 nM in assay [1], 0.015 nM with OVCAR3 cells and 0.017 nM in the assay on PA-1 cells.

B2: ADC-L1-19-6 (conjugate)
heavy: EVQLVQSGAEVKKPGASVKVSCKASGYTFTDYYMAWVRQAPGQGLEWMGYIFPNSGGTDYSQKFKGRVTLTVDKSTSTVYMELSSLRSEDTAVYYCARELGADYGDYYAMDHWGQGTTVTVSS[human IgG1 constant region omitted]
light: DIQMTQSPSSLSASVGDRVTITCRASENIDSYLAWYQQKPGKSPKLLVYSATLLADGVPSRFSGSGSGTDYTLTISSLQPEDFATYYCQHYYRTPPTFGQGTKLEIKRTVAAPSVFIFPPSDEQLKSGTASVVCLLNNFYPREAKVQWKVDNALQSGNSQESVTEQDSKDSTYSLSSTLTLSKADYEKHKVYACEVTHQGLSSPVTKSFNRGEC
Consider B2, for which, in assay [1], the “Maximum inhibition rate (%)” value is given as 104%. The results for the IC50 (in assay [1]; in the assay on OVCAR3 cells; in the assay with PA-1 cells) were 2.21 nM, 0.022 nM and 0.023 nM, respectively.

B3: ADC-L1-19-P1-3 (conjugate)
heavy: EVQLVQSGAEVKKPGASVKVSCKASGYTFTRNFMHWVRQAPGQGLEWMGWIYPGDGETEYAQKFQGRVTITADTSTSTAYMELSSLRSEDTAVYYCARGVYGGFAGGYFDFWGQGTLVTVSSASTKGPSVFPLAPSSKSTSGGTAALGCLVKDYFPEPVTVSWNSGALTSGVHTFPAVLQSSGLYSLSSVVTVPSSSLGTQTYICNVNHKPSNTKVDKRV[human IgG1 Fc omitted]
light: DIQMTQSPSSLSASVGDRVTITCKASQNIYKNLAWYQQKPGKAPKLLIYDANTLQTGVPSRFSGSGSGSDFTLTISSLQPEDFATYFCQQYYSGWAFGQGTKVEIKRTVAAPSVFIFPPSDEQLKSGTASVVCLLNNFYPREAKVQWKVDNALQSGNSQESVTEQDSKDSTYSLSSTLTLSKADYEKHKVYACEVTHQGLSSPVTKSFNRGEC
Take B3: the “Maximum inhibition rate (%)” value in assay [1] is 105.4%. Further, the figures for the IC50 (in assay [1]; in the assay with OVCAR3 cells; in the assay with PA-1 cells) were 1.37 nM, 0.015 nM and 0.018 nM, respectively.

B4: ADC-L1-19-3 (conjugate)
heavy: EVQLVQSGAEVKKPGASVKVSCKASGYTFTRNFMHWVRQAPGQGLEWMGWIYPGDGETEYAQKFQGRVTITADTSTSTAYMELSSLRSEDTAVYYCARGVYGGFAGGYFDFWGQGTLVTVSSASTKGPSVFPLAPSSKSTSGGTAALGCLVKDYFPEPVTVSWNSGALTSGVHTFPAVLQSSGLYSLSSVVTVPSSSLGTQTYICNVNHKPSNTKVDKRV[human IgG1 Fc omitted]
light: DIQMTQSPSSLSASVGDRVTITCKASQNIYKNLAWYQQKPGKAPKLLIYDANTLQTGVPSRFSGSGSGSDFTLTISSLQPEDFATYFCQQYYSGWAFGQGTKVEIKRTVAAPSVFIFPPSDEQLKSGTASVVCLLNNFYPREAKVQWKVDNALQSGNSQESVTEQDSKDSTYSLSSTLTLSKADYEKHKVYACEVTHQGLSSPVTKSFNRGEC
B4: in assay [1], the “Maximum inhibition rate (%)” value was determined as 102.7%. In addition, the 50% inhibitory concentration (IC50) in assay [1] stood at 1.39 nM; with OVCAR3 cells, 0.015 nM; in the assay on PA-1 cells, 0.0094 nM.
